# Experimental data reported in the supplement of paper PMC8728848.
# The list shows a part of the results.
# Assays:
# Assay in all cases: glycan array binding signal (z-score within array); higher = stronger binding
# Settings in all cases: glycan notation: IUPAC condensed, linker removed
# [1] = molecular target: Neu5Ac(a2-6)Gal(b1-4)GlcNAc
# Method in brief: (§1)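 The binding signal is a Z-score computed within each array. Data were drawn from 3228 arrays in the Consortium for Functional Glycomics database, restricted to those with a known protein sequence. Scores were averaged over arrays of the same protein sequence at different concentrations or buffers, and over linkers, and negative values can be taken as non-binding.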
# [2] = molecular target: Neu5Ac(a2-6)Gal(b1-4)GlcNAc(b1-2)Man(a1-3)[Gal(b1-4)GlcNAc(b1-2)Man(a1-6)]Man(b1-4)GlcNAc(b1-4)GlcNAc
# Method in brief: as §1
# [3] = molecular target: Neu5Ac(a2-6)Gal(b1-4)GlcNAc(b1-2)Man(a1-3)[GlcNAc(b1-2)Man(a1-6)]Man(b1-4)GlcNAc(b1-4)GlcNAc
# Method in brief: as §1
# [4] = molecular target: Neu5Ac(a2-6)Gal(b1-4)GlcNAc(b1-2)Man(a1-3)[GlcNAc(b1-2)Man(b1-4)GlcNAc(b1-2)Man(a1-6)]Man(b1-4)GlcNAc(b1-4)GlcNAc
# Method in brief: as §1
# [5] = molecular target: Neu5Ac(a2-6)Gal(b1-4)GlcNAc(b1-2)Man(a1-3)[Neu5Ac(a2-6)Gal(b1-4)GlcNAc(b1-2)Man(a1-6)]Man(b1-4)GlcNAc(b1-4)GlcNAc
# Method in brief: as §1
# [6] = molecular target: Neu5Ac(a2-6)Gal(b1-4)GlcNAc(b1-2)Man(a1-6)[Gal(b1-4)GlcNAc(b1-2)Man(a1-3)]Man(b1-4)GlcNAc(b1-4)GlcNAc
# Method in brief: as §1
# [7] = molecular target: Neu5Ac(a2-6)Gal(b1-4)GlcNAc(b1-2)Man(a1-6)[GlcNAc(b1-2)Man(a1-3)]Man(b1-4)GlcNAc(b1-4)GlcNAc
# Method in brief: as §1
# [8] = molecular target: Neu5Ac(a2-6)Gal(b1-4)GlcNAc(b1-3)Gal(b1-4)GlcNAc
# Method in brief: as §1
# [9] = molecular target: Neu5Ac(a2-6)Gal(b1-4)GlcNAc(b1-3)Gal(b1-4)[Fuc(a1-3)]GlcNAc(b1-3)Gal(b1-4)[Fuc(a1-3)]GlcNAc
# Method in brief: as §1
# [10] = molecular target: Neu5Ac(a2-6)Gal(b1-4)GlcNAc6S
# Method in brief: as §1
# [11] = molecular target: Neu5Ac(a2-6)GalNAc
# Method in brief: as §1
# [12] = molecular target: Neu5Ac(a2-6)GalNAc(b1-4)GlcNAc
# Method in brief: as §1
# [13] = molecular target: Neu5Ac(a2-8)Neu5Ac
# Method in brief: as §1
# [14] = molecular target: Neu5Ac(a2-8)Neu5Ac(a2-3)Gal(b1-4)Glc
# Method in brief: as §1
# [15] = molecular target: Neu5Ac(a2-8)Neu5Ac(a2-3)[GalNAc(b1-4)]Gal(b1-4)Glc
# Method in brief: as §1
# [16] = molecular target: Neu5Ac(a2-8)Neu5Ac(a2-8)Neu5Ac
# Method in brief: as §1
# [17] = molecular target: Neu5Ac(a2-8)Neu5Ac(a2-8)Neu5Ac(a2-3)Gal(b1-4)Glc
# Method in brief: as §1
# [18] = molecular target: Neu5Ac(a2-8)Neu5Ac(a2-8)Neu5Ac(a2-3)[GalNAc(b1-4)]Gal(b1-4)Glc
# Method in brief: as §1
# [19] = molecular target: Neu5Ac(a2-8)Neu5Ac(a2-8)Neu5Ac(a2-8)Neu5Ac(a2-3)[GalNAc(b1-4)]Gal(b1-4)Glc
# Method in brief: as §1
# [20] = molecular target: Neu5Ac(b2-6)Gal(b1-4)GlcNAc
# Method in brief: as §1
# [21] = molecular target: Neu5Ac(b2-6)GalNAc
# Method in brief: as §1
# [22] = molecular target: Neu5Ac9Ac(a2-6)Gal(b1-4)GlcNAc
# Method in brief: as §1
# [23] = molecular target: Neu5Gc(a2-3)Gal(b1-3)GlcNAc
# Method in brief: as §1
# [24] = molecular target: Neu5Gc(a2-3)Gal(b1-3)[Fuc(a1-4)]GlcNAc
# Method in brief: as §1
# [25] = molecular target: Neu5Gc(a2-3)Gal(b1-4)Glc
# Method in brief: as §1
# [26] = molecular target: Neu5Gc(a2-3)Gal(b1-4)GlcNAc
# Method in brief: as §1
# [27] = molecular target: Neu5Gc(a2-3)Gal(b1-4)[Fuc(a1-3)]GlcNAc
# Method in brief: as §1
# [28] = molecular target: Neu5Gc(a2-6)Gal(b1-4)GlcNAc
# Method in brief: as §1
# [29] = molecular target: Neu5Gc(a2-6)GalNAc
# Method in brief: as §1
# [30] = molecular target: Neu5Gc(b2-6)Gal(b1-4)GlcNAc
# Method in brief: as §1
binder,measurement,setting,value
"P-Selectin (Homo sapiens), P16109 (protein) MANCQIAILYQRFQRVVFGISQLLCFSALISELTNQKEVAAWTYHYSTKAYSWNISRKYCQNRYTDLVAIQNKNEIDYLNKVLPYYSSYYWIGIRKNNKTWTWVGTKKALTNEAENWADNEPNNKRNNEDCVEIYIKSPSAPGKWNDEHCLKKKHALCYTASCQDMSCSKQGECLETIGNYTCSCYPGFYGPECEYVRECGELELPQHVLMNCSHPLGNFSFNSQCSFHCTDGYQVNGPSKLECLASGIWTNKPPQCLAAQCPPLKIPERGNMTCLHSAKAFQHQSSCSFSCEEGFALVGPEVVQCTASGVWTAPAPVCKAVQCQHLEAPSEGTMDCVHPLTAFAYGSSCKFECQPGYRVRGLDMLRCIDSGHWSAPLPTCEAISCEPLESPVHGSMDCSPSLRAFQYDTNCSFRCAEGFMLRGADIVRCDNLGQWTAPAPVCQALQCQDLPVPNEARVNCSHPFGAFRYQSVCSFTCNEGLLLVGASVLQCLATGNWNSVPPECQAIPCTPLLSPQNGTMTCVQPLGSSSYKSTCQFICDEGYSLSGPERLDCTRSGRWTDSPPMCEAIKCPELFAPEQGSLDCSDTRGEFNVGSTCHFSCDNGFKLEGPNNVECTTSGRWSATPPTCKGIASLPTPGLQCPALTTPGQGTMYCRHHPGTFGFNTTCYFGCNAGFTLIGDSTLSCRPSGQWTAVTPACRAVKCSELHVNKPIAMNCSNLWGNFSYGSICSFHCLEGQLLNGSAQTACQENGHWSTTVPTCQAGPLTIQEASTSITAYKSEGESAEFSFPLNLGEESLQGELRWKAEKAPSSQSWITFSLKNQKVSVQKSTSNPKFQLSETLPLTLQIPQVSLQFAGSGNLTLTLDRGILYQEVNLVVMKVTQPDSNTLTCEVMGPTSPKMRLILKQENQEARVSRQEKVIQVQAPEAGVWQCLLSEGEEVKMDSKIQVLSKGLNSGGGSGGGTGGGDLAPQMLRELQETNAALQDVRELLRQQVKEITFLKNTVMECDACGLDRNLPPLAPLGPHPETLVKVKDAEDQLGARVGYIELDLNSGKILESFRPEERFPMMSTFKVLLCGAVLSRIDAGQEQLGRRIHYSQNDLVEYSPVTEKHLTDGMTVRELCSAAITMSDNTAANLLLTTIGGPKELTAFLHNMGDHVTRLDRWEPELNEAIPNDERDTTMPVAMATTLRKLLTGELLTLASRQQLIDWMEADKVAGPLLRSALPAGWFIADKSGAGERGSRGIIAALGPDGKPSRIVVIYTTGSQATMDERNRQIAEIGASLIKHWGPDYKDHDGDYKDHDIDYKDDDDKGPHHHHHH",glycan array binding signal (z-score),[1],-0.288
same,glycan array binding signal (z-score),[2],-0.005
same,glycan array binding signal (z-score),[3],-0.101
same,glycan array binding signal (z-score),[4],-0.079
same,glycan array binding signal (z-score),[5],-0.139
same,glycan array binding signal (z-score),[6],-0.304
same,glycan array binding signal (z-score),[7],-0.313
same,glycan array binding signal (z-score),[8],0.327
same,glycan array binding signal (z-score),[9],-0.024
same,glycan array binding signal (z-score),[10],0.362
same,glycan array binding signal (z-score),[11],-0.32
same,glycan array binding signal (z-score),[12],-0.322
same,glycan array binding signal (z-score),[13],0.108
same,glycan array binding signal (z-score),[14],-0.226
same,glycan array binding signal (z-score),[15],-0.159
same,glycan array binding signal (z-score),[16],-0.232
same,glycan array binding signal (z-score),[17],-0.234
same,glycan array binding signal (z-score),[18],-0.193
same,glycan array binding signal (z-score),[19],-0.169
same,glycan array binding signal (z-score),[20],-0.407
same,glycan array binding signal (z-score),[21],-0.397
same,glycan array binding signal (z-score),[22],-0.349
same,glycan array binding signal (z-score),[23],-0.429
same,glycan array binding signal (z-score),[24],4.38
same,glycan array binding signal (z-score),[25],-0.063
same,glycan array binding signal (z-score),[26],-0.117
same,glycan array binding signal (z-score),[27],0.77
same,glycan array binding signal (z-score),[28],-0.28
same,glycan array binding signal (z-score),[29],-0.391
same,glycan array binding signal (z-score),[30],-0.204
